Results on 26 compounds are retold here after US7160888B2, “[1,8]naphthyridin-2-ones and related compounds for the treatment of schizophrenia” (Warner Lambert Company LLC, priority 2003, dated 2007).

Each structure is given as a SMILES string.

The target in the first assay is dopamine D2 receptor (Homo sapiens, UniProt P14416). As to the kind of experiment: biochemical. The settings on record: D2 Ki (nM), Table 1; 0.4 nM [3H]spiperone, CHO-hD2L membranes.
Chain of UniProt P14416 (P14416 whole entry): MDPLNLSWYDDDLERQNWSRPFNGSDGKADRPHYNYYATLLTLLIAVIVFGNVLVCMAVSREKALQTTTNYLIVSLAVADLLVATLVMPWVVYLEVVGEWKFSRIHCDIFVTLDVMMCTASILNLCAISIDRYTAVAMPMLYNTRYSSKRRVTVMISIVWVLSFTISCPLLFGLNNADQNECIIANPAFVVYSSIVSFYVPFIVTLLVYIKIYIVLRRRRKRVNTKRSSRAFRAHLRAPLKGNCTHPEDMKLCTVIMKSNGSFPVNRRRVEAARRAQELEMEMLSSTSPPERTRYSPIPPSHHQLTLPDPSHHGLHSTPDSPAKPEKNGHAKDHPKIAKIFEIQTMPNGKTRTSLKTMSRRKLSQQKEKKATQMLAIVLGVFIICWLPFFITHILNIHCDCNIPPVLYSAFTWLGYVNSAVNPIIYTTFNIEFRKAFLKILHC
On to `COc1ccc2cccc(N3CCN(CCCCOc4ccc5ccc(=O)[nH]c5n4)CC3)c2c1` [Example B60, 7-{4-[4-(7-Methoxy-naphthalen-1-yl)-piperazin-1-yl]-butoxy}-1H-[1,8]naphthyridin-2-one], for which the Ki is 1.6 nM.
Compound `COc1ccc2c(N3CCN(CCCCOc4ccc5ccc(=O)[nH]c5n4)CC3)cccc2c1` [Example B61, 7-{4-[4-(6-Methoxy-naphthalen-1-yl)-piperazin-1-yl]-butoxy}-1H-[1,8]naphthyridin-2-one] gave a Ki of 23.9 nM.
With `CC(=O)c1ccc2cccc(N3CCN(CCCCOc4ccc5ccc(=O)[nH]c5n4)CC3)c2c1` [Example B62, 7-{4-[4-(7-Acetyl-naphthalen-1-yl)-piperazin-1-yl]-butoxy}-1H-[1,8]naphthyridin-2-one], affinity was put at a Ki of 1 nM.
The compound `CC(=O)c1ccc2c(N3CCN(CCCCOc4ccc5ccc(=O)[nH]c5n4)CC3)cccc2c1` [Example B63, 7-{4-[4-(6-Acetyl-naphthalen-1-yl)-piperazin-1-yl]-butoxy}-1H-[1,8]naphthyridin-2-one] registered a Ki of 47.9 nM.
`CC(=O)c1cccc2c(N3CCN(CCCCOc4ccc5ccc(=O)[nH]c5n4)CC3)cccc12` [Example B64, 7-{4-[4-(5-Acetyl-naphthalen-1-yl)-piperazin-1-yl]-butoxy}-1H-[1,8]naphthyridin-2-one] came in with a Ki of 17 nM.
On to `CC(=O)c1ccc(N2CCN(CCCCOc3ccc4ccc(=O)[nH]c4n3)CC2)c2ccccc12` [Example B65, 7-{4-[4-(4-Acetyl-naphthalen-1-yl)-piperazin-1-yl]-butoxy}-1H-[1,8]naphthyridin-2-one], for which the Ki was found to be 9.2 nM.
Regarding `CC(=O)c1ccc2ccccc2c1N1CCN(CCCCOc2ccc3ccc(=O)[nH]c3n2)CC1` [Example B66, 7-{4-[4-(2-Acetyl-naphthalen-1-yl)-piperazin-1-yl]-butoxy}-1H-[1,8]naphthyridin-2-one], the Ki was 29.2 nM.
In turn, `N#Cc1ccc2cccc(N3CCN(CCCCOc4ccc5ccc(=O)[nH]c5n4)CC3)c2c1` [Example B67, 8-{4-[4-(7-Oxo-7,8-dihydro-[1,8]naphthyridin-2-yloxy)-butyl]-piperazin-1-yl}-naphthalene-2-carbonitrile] gave a Ki of 2.5 nM.
Same read-out and setting: the same measure for `Cn1c(=O)ccc2ccc(OCCCCN3CCN(c4cccc5ccccc45)CC3)nc21` [Example B68, 1-Methyl-7-[4-(4-naphthalen-1-yl-piperazin-1-yl)-butoxy]-1H-[1,8]naphthyridin-2-one]: 4.5 nM; for `O=c1ccc2ccc(OCCCN3CCN(c4cccc(Cl)c4Cl)CC3)nc2[nH]1` [Example C1, 7-{3-[4-(2,3-Dichloro-phenyl)-piperazin-1-yl]-propoxy}-1H-[1,8]naphthyridin-2-one]: 6.6 nM.
The same measure, in the same setting: the same measure for `O=c1ccc2ccc(OCCCN3CCN(c4cccc5ccccc45)CC3)nc2[nH]1` [Example C2, 7-[3-(4-Naphthalen-1-yl-piperazin-1-yl)-propoxy]-1H-[1,8]naphthyridin-2-one]: 4.7 nM; for `O=C1CCc2ccc(OCCCN3CCN(c4cccc5ccccc45)CC3)nc2N1` [Example C3, 7-[3-(4-Naphthalen-1-yl-piperazin-1-yl)-propoxy]-3,4-dihydro-1H-[1,8]naphthyridin-2-one]: 6.8 nM.
The same measure, in the same setting: the value for `O=c1ccc2ccc(OCCN3CCN(c4cccc(Cl)c4Cl)CC3)nc2[nH]1` [Example C4, 7-{2-[4-(2,3-Dichloro-phenyl)-piperazin-1-yl]-ethoxy}-1H-[1,8]naphthyridin-2-one] was 54.1 nM; that for `CC(CCCN1CCN(c2cccc(Cl)c2Cl)CC1)Oc1ccc2c(n1)NC(=O)CC2` (centres unmarked) [Example C5, 7-{4-[4-(2,3-Dichloro-phenyl)-piperazin-1-yl]-1-methyl-butoxy}-3,4-dihydro-1H-[1,8]naphthyridin-2-one] was 1.4 nM.
`CC(CCCN1CCN(c2cccc3ccccc23)CC1)Oc1ccc2c(n1)NC(=O)CC2` (centres unmarked) [Example C6, 7-[1-Methyl-4-(4-naphthalen-1-yl-piperazin-1-yl)-butoxy]-3,4-dihydro-1H-[1,8]naphthyridin-2-one] gave a Ki of 2 nM.
As for `CC(C)(CCCN1CCN(c2cccc3ccccc23)CC1)Oc1ccc2c(n1)NC(=O)CC2` [Example C8, 7-[1,1-Dimethyl-4-(4-naphthalen-1-yl-piperazin-1-yl)-butoxy]-3,4-dihydro-1H-[1,8]naphthyridin-2-one], the Ki was determined as 1.4 nM.
Same read-out and setting: the value for `Cc1cccc(N2CCN(CCCCCc3ccc4c(n3)NC(=O)CC4)CC2)c1Cl` [Example C10, 7-{5-[4-(2-Chloro-3-methyl-phenyl)-piperazin-1-yl]-pentyl}-3,4-dihydro-1H-[1,8]naphthyridin-2-one] was 7 nM; that for `O=C1CCc2ccc(CCCCCN3CCN(c4ccc(F)c(Cl)c4Cl)CC3)nc2N1` [Example C11, 7-{5-[4-(2,3-Dichloro-4-fluoro-phenyl)-piperazin-1-yl]-pentyl}-3,4-dihydro-1H-[1,8]naphthyridin-2-one] was 16.4 nM; that for `O=C1CCc2ccc(CCCCCN3CCN(c4cccc5c4CCCC5)CC3)nc2N1` [Example C12, 7-{5-[4-(5,6,7.8-Tetrahydro-naphthalen-1-yl)-piperazin-1-yl]-pentyl}-3,4-dihydro-1H-[1,8]naphthyridin-2-one] was 13.5 nM.
On to `O=C1CCc2ccc(CCCCCN3CCN(c4ccc(F)cc4Cl)CC3)nc2N1` [Example C14, 7-{5-[4-(2-Chloro-4-fluoro-phenyl)-piperazin-1-yl]-pentyl}-3,4-dihydro-1H-[1,8]naphthyridin-2-one], for which the inhibition constant Ki is 65.5 nM.

Staying with this assay, now noted: D2 Ki (nM), Table 2; 0.4 nM [3H]spiperone, CHO-hD2L membranes.
`CC1(C)CC(=O)Nc2nc(OCCCCN3CCN(c4cccc5cccnc45)CC3)ccc21` [Example C1′, 4,4-Dimethyl-7-[4-(4-quinolin-8-yl-piperazin-1-yl)-butoxy]-3,4-dihydro-1H-[1,8]naphthyridin-2-one] had a Ki of 6.2 nM.
`CC1(C)CC(=O)Nc2nc(OCCCCN3CCN(c4cccc5c4OCCO5)CC3)ccc21` [Example C2′, 7-{4-[4-(2,3-Dihydro-benzo[1,4]dioxin-5-yl)-piperazin-1-yl]-butoxy}-4,4-dimethyl-3,4-dihydro-1H-[1,8]naphthyridin-2-one] came in with a Ki of 1.9 nM.
In turn, `CC1(C)CC(=O)Nc2nc(OCCCCN3CCN(c4cccc5c4NC(=O)CC5)CC3)ccc21` [Example C3′, 4,4-Dimethyl-7-{4-[4-(2-oxo-1,2,3,4-tetrahydro-quinolin-8-yl)-piperazin-1-yl]-butoxy}-3,4-dihydro-1H-[1,8]naphthyridin-2-one] yielded a Ki of 7 nM.
Still for that read-out and setting: the same measure for `CC1(C)CC(=O)Nc2nc(OCCCCN3CCN(c4cccc5ccc(=O)[nH]c45)CC3)ccc21` [Example C4′, 4,4-Dimethyl-7-{4-[4-(2-oxo-1,2-dihydro-quinolin-8-yl)-piperazin-1-yl]-butoxy}-3,4-dihydro-1H-[1,8]naphthyridin-2-one]: 18.4 nM.
As to `CC1(C)CC(=O)Nc2nc(OCCCCN3CCN(c4cccc5ccoc45)CC3)ccc21` [Example C5′, 7-[4-(4-Benzofuran-7-yl-piperazin-1-yl)-butoxy]-4,4-dimethyl-3,4-dihydro-1H-[1,8]naphthyridin-2-one], the Ki was determined as 3 nM.
As for `CC1(C)CC(=O)Nc2nc(OCCCCN3CCN(c4cccc5c4OCCC5)CC3)ccc21` [Example C6′, 7-[4-(4-Chroman-8-yl-piperazin-1-yl)-butoxy]-4,4-dimethyl-3,4-dihydro-1H-[1,8]naphthyridin-2-one], the Ki came out at 1.4 nM.
